Source: the BET-seq Pho4 binding data (Le et al. 2018)
The other results are listed elsewhere or left out. Values were computed here from the reads of four pooled replicates and scatter widely.

Target: T1, Pho4 (S. cerevisiae) (UniProt P07270)
T1 sequence: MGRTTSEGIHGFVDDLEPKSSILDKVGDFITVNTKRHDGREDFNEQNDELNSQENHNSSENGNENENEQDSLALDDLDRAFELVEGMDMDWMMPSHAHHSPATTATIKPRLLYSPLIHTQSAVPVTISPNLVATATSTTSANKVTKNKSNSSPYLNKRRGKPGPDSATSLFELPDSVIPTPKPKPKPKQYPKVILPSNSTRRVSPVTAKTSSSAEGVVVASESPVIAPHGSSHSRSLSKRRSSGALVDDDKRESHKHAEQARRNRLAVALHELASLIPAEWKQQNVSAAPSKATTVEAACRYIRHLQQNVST
Test: relative binding free energy (BET-seq); higher = weaker binding
Conditions: reference: library average

Relative binding free energy, 0.02 kcal/mol:
TGCGACACGTGTGGAT
AATTACACGTGGGTTC
TATATCACGTGGGTGT
TATGTCACGTGGTTTC
GGTGGCACGTGTCATA
GTTTGCACGTGGTTAT

Relative binding free energy, 0 kcal/mol:
ATGGACACGTGTGTGG
CTCGGCACGTGTCTGG
GGGCACACGTGTGGGA
GTTTGCACGTGGCCAG
GTTGGCACGTGGACTA

Relative binding free energy, 0.05 kcal/mol:
GTAGGCACGTGTAGGA
TGCAACACGTGTTTAG
CATTACACGTGTTTTT
TATTGCACGTGTGGTG
TCGGGCACGTGTATGG

Relative binding free energy, 0.26 kcal/mol:
TAAGGCACGTGAAGGC
GGCTTCACGTGGGGAA
GTAATCACGTGTCGGT
GGGATCACGTGGGCCG

Relative binding free energy, -0.08 kcal/mol:
GCGTGCACGTGCGGAG
TGAGACACGTGGGTGA
ACGTGCACGTGATTGG
AGTCGCACGTGCGGTG

Relative binding free energy, -0.06 kcal/mol:
AGCGTCACGTGGGTGT
GTATGCACGTGGTATC

Relative binding free energy, 0.15 kcal/mol:
TTTGACACGTGACTTA
TTGCTCACGTGGTGGA
TAAATCACGTGGTTAG

Relative binding free energy, -0.29 kcal/mol:
CGGCGCACGTGGGGGG
ACGGGCACGTGGGGAA

Relative binding free energy, 0.25 kcal/mol:
AGACTCACGTGTTAGG

Relative binding free energy, -0.1 kcal/mol:
GTTTGCACGTGGGGCG
GTGGGCACGTGGCGTT

Relative binding free energy, 0.18 kcal/mol:
TCAATCACGTGGTGGT
ATAGGCACGTGAATGA
TTTTACACGTGATCTA
ATTCGCACGTGTGGAA

Relative binding free energy, -0.12 kcal/mol:
CGGGGCACGTGCGGTT
AGGGACACGTGCAAGG
TGCTGCACGTGGATGT

Relative binding free energy, 0.03 kcal/mol:
TCGGTCACGTGGGCGT
TTTTACACGTGGTGCA
TATTGCACGTGTGTGA
TCATACACGTGTGGGG
CGAAACACGTGTGTTG
TTTTGCACGTGTAAAA
GGGGGCACGTGGATGT

Relative binding free energy, 0.22 kcal/mol:
GGTGACACGTGAAGGA
TTTGTCACGTGTGGTT

Relative binding free energy, 0.38 kcal/mol:
TTCATCACGTGACTTT

Relative binding free energy, 0.37 kcal/mol:
TGGTTCACGTGATAGG

Relative binding free energy, -0.18 kcal/mol:
TTTAGCACGTGGGATT
ATAGGCACGTGCTCGT
ACGAGCACGTGGTAGT
TACGGCACGTGGTGAG

Relative binding free energy, -0.17 kcal/mol:
CTAGGCACGTGGTTGC
TCTATCACGTGGGGTG
TTGCGCACGTGTCGGT

Relative binding free energy, -0.02 kcal/mol:
ACGTGCACGTGAGTAG
TGTTGCACGTGTGTCC
ATATGCACGTGCTGAG
ATGTACACGTGGGCAG

Relative binding free energy, -0.05 kcal/mol:
CTAGTCACGTGGGAAG
CTGGGCACGTGATGGC
GTAGGCACGTGATACG
TAGCGCACGTGTTTTA

Relative binding free energy, -0.09 kcal/mol:
GGTTGCACGTGGTGCC
TCGAGCACGTGCGTGG
AGTTGCACGTGGTCTC
GTCGCCACGTGTGGTG
GTTGGCACGTGTCGCG
AAGGTCACGTGGTCGG
TTGCCCACGTGTTTGT

Relative binding free energy, 0.29 kcal/mol:
TTCTTCACGTGGTTTT

Relative binding free energy, 0.32 kcal/mol:
GAGCTCACGTGTGAGG
GGATACACGTGAGGTG
GGGCACACGTGAAGGG
TGGGTCACGTGACGCT
GATTGCACGTGAGGGT

Relative binding free energy, 0.42 kcal/mol:
GGGTTCACGTGTGGCT
GATTTCACGTGCCGGG

Relative binding free energy, -0.31 kcal/mol:
TGCGGCACGTGGGGCT

Relative binding free energy, -0.01 kcal/mol:
TCTCGCACGTGGTTGT

Relative binding free energy, 0.19 kcal/mol:
TGTACCACGTGAGGTT
GGATACACGTGTGAGG
AAGGTCACGTGTAGGT

Relative binding free energy, 0.12 kcal/mol:
AGTGGCACGTGATGAT
AAAGTCACGTGTGGGC
TATTGCACGTGTAAGC
CTGATCACGTGTGGTG

Relative binding free energy, 0.06 kcal/mol:
GGGCGCACGTGAGGTC
GGTGTCACGTGCGGCT
GTTCGCACGTGGTAAA
CAGTTCACGTGGCGTG
TTTTACACGTGTATGT

Relative binding free energy, 0.31 kcal/mol:
CGGTGCACGTGAGGAA
TGGCTCACGTGTAAGA
AGGTTCACGTGTGAGG
CGGGTCACGTGAGGAA

Relative binding free energy, -0.32 kcal/mol:
TAGCGCACGTGGGGTC
ACTGGCACGTGGGGCT

Relative binding free energy, 0.24 kcal/mol:
CCATGCACGTGAGGGG
TGGCTCACGTGTAAGG
TACTTCACGTGATGAT

Relative binding free energy, 0.28 kcal/mol:
GTTTTCACGTGTAAGA
AGGTTCACGTGTGAAA
TTTTTCACGTGCTTGA

Relative binding free energy, 0.13 kcal/mol:
GGTGGCACGTGATGGG
AGTTTCACGTGGGTGT
TAGTGCACGTGAGGGA
GTTCACACGTGCAGGG
GGTTGCACGTGTAATG
GGAGGCACGTGATTAT
TAGCGCACGTGAAGGG
GTAAGCACGTGACGGG
GTCGACACGTGTTTGG
TCTGTCACGTGTAGCT

Relative binding free energy, -0.26 kcal/mol:
TGTGGCACGTGCATGG

Relative binding free energy, 0.14 kcal/mol:
GTTATCACGTGTTGTA
TGTTACACGTGTAAGG
GGGTACACGTGTGGTC
CTGGTCACGTGGAGAT
TGTATCACGTGAGGTC
GTTTGCACGTGTAAGG

Relative binding free energy, -0.15 kcal/mol:
GTTGGCACGTGCATGG
TAGTGCACGTGTTGCA
TAGGGCACGTGCGAGT

Relative binding free energy, 0.16 kcal/mol:
GTGTGCACGTGTGTTT

Relative binding free energy, -0.2 kcal/mol:
TTGGCCACGTGGGATG

Relative binding free energy, 0.11 kcal/mol:
AGCGGCACGTGATGTG
CATGACACGTGTTTTT
TGGTGCACGTGTGGTC

Relative binding free energy, 0.17 kcal/mol:
AAGATCACGTGTATGT
ATAGGCACGTGAATTG
TTTAGCACGTGAGGGT
CTATTCACGTGTTGAG
GGCCTCACGTGGTTTG
GTGGTCACGTGTTCTC

Relative binding free energy, -0.21 kcal/mol:
TGAGGCACGTGCTGAG

Relative binding free energy, 0.43 kcal/mol:
TATTTCACGTGAGTTG

Relative binding free energy, -0.19 kcal/mol:
TGATACACGTGGGTAG
CGGTGCACGTGGCAGG
AGGAGCACGTGGGGCA
AATAGCACGTGGTAGG

Relative binding free energy, -0.13 kcal/mol:
GTAAGCACGTGCTTTG
AGGGGCACGTGGCAGT
TTTGCCACGTGGAGGG
GTGTGCACGTGCCGTG
ATGGGCACGTGTTGTA
TTTAGCACGTGGATAT
GTTGACACGTGGGCGG

Relative binding free energy, -0.28 kcal/mol:
TAGCGCACGTGGGGTT

Relative binding free energy, -0.03 kcal/mol:
TTCGGCACGTGATTTG
TTGACCACGTGTTTGG

Relative binding free energy, 0.01 kcal/mol:
GTGGACACGTGGACTG
TATAACACGTGTGGGA
TTTTCCACGTGGTCAG
TGTTGCACGTGACGGA
GTTAACACGTGGGCGA
GGTGGCACGTGTTCAT
GACGGCACGTGGTAGA

Relative binding free energy, 0.09 kcal/mol:
GTTCGCACGTGTTTTA
AAGTACACGTGGTGCT
GGTATCACGTGTCTAT
GTGGTCACGTGGGTTT
GCAGACACGTGGATGG

Relative binding free energy, -0.27 kcal/mol:
TGGTGCACGTGCTCGT
GGGGCCACGTGGGCAT

Relative binding free energy, 0.41 kcal/mol:
TTTTACACGTGAGCGC

Relative binding free energy, -0.11 kcal/mol:
TTGGCCACGTGGGTTC

Relative binding free energy, -0.07 kcal/mol:
GGGTGCACGTGGTATC
ATATGCACGTGTTACT
ACAGGCACGTGTGTAG
TAGAGCACGTGGTTGG

Relative binding free energy, -0.25 kcal/mol:
TGTAGCACGTGGGGTC

Relative binding free energy, 0.39 kcal/mol:
ATTTTCACGTGACTTG

Relative binding free energy, -0.04 kcal/mol:
AGGAGCACGTGGAGGT
TGTGGCACGTGGAGGT
TAGGACACGTGGTTAG

Relative binding free energy, 0.51 kcal/mol:
AGGTTCACGTGAAACG

Relative binding free energy, -0.14 kcal/mol:
TGCTACACGTGGGGTG
CGGTGCACGTGCGTGG
TATCGCACGTGGCTGT
GGCAGCACGTGGTATG
ATCTGCACGTGGTAGT
TTGCGCACGTGCGTGT

Relative binding free energy, 0.04 kcal/mol:
TGAGACACGTGGGAAA
TTAAGCACGTGAAGCG
AAGTGCACGTGCAGTG
GTTTGCACGTGCCAGG
TTGTGCACGTGTATAA
AAGTACACGTGGTGTA
ATGTACACGTGGATTT

Relative binding free energy, 0.07 kcal/mol:
GAAAGCACGTGGATTT
TGGTACACGTGGAGGT
TTCGCCACGTGTTATG
TGTCGCACGTGTGGTT
AATATCACGTGGTCAT
AGAGACACGTGTTATG
CGAAGCACGTGTGGAG
GGTTCCACGTGTTAGG
TTTGTCACGTGTCGGA

Relative binding free energy, 0.2 kcal/mol:
GAGCTCACGTGGGAGG
GATGTCACGTGTGGAC
ATTTTCACGTGGTACA
AGGTACACGTGAGGAT
GGCGGCACGTGAGTCG

Relative binding free energy, 0.27 kcal/mol:
TTGGCCACGTGAATTT
ATACTCACGTGATGGT
ATTTACACGTGTTGTC
AGATTCACGTGTGGAG

Relative binding free energy, 0.21 kcal/mol:
TCTTTCACGTGGGAGG
ACAATCACGTGTGGTT
TTGCTCACGTGCGTTA
GAATTCACGTGAAGTG
TTTTACACGTGGAGTT
GTAGTCACGTGAGTGT

Relative binding free energy, 0.1 kcal/mol:
TAGGTCACGTGTTTGT
AACGACACGTGTGGGG
GTTAACACGTGTCGGT

Relative binding free energy, 0.08 kcal/mol:
TACGTCACGTGTAGGG
TTAGTCACGTGTGGCT
CGTTTCACGTGGCGTA
TTGGGCACGTGTGCTA
TCGGACACGTGGCTTG
GTGGACACGTGTTAGC
TGTATCACGTGGTTAG

Relative binding free energy, 0.23 kcal/mol:
GACATCACGTGGTTGT
AATTTCACGTGGAGAT
